# Test results: PubChem BioAssay AID686971 (National Center for Advancing Translational Sciences (NCATS), 2013)
# Hit rate of the full screen: of about 360,000 compounds, about 7,500 (2.1%) were called active. This list was built around the results that the source calls inconclusive (neither active nor inactive); the mix of calls is not that of the screen. Calls come from the whole dose curve; as a rule, active = well fitted cell-killing curve with a large enough effect; inconclusive = small, poorly fitted or top-dose-only effect, or effect the other way, or another doubt; inactive = no such curve, though single readings can be large or run the other way. No potency is given beside an inconclusive call; the fits are too rough.
# Assay: qHTS for induction of synthetic lethality in tumor cells producing 2HG: qHTS for the HT-1080-IDH1KD cell line;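 for activity, negative = toxicity: 0% = DMSO wells and -100% = cell-free medium wells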
# Conditions: HT-1080 IDH1 knockdown viability, ATP luminescence, 48 h; activity, negative = toxicity: at 46.1 µM (top of the series) unless noted
# Summary of the method: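 CellTiter-Glo luminescence after 48 h compound exposure at 37 degrees C of IDH1-knockdown HT-1080 cells in 5% FBS RPMI. %Activity scaled between DMSO wells and cell-free media wells, with curves fitted and assigned curve classes.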
# Potency is the fitted concentration of half-maximal effect; tags give direction and shape of the fitted curve.
Structure (SMILES),Potency,"activity, negative = toxicity"
CCOC(=O)c1c(C)[nH]c(C2=NNC(=Nc3ccccc3OC)SC2)c1C,"inconclusive [cytotoxic, partial curve]",
COc1ccccc1C=NN=C(NN=Cc1ccccc1OC)NN=Cc1ccccc1OC,"inconclusive [cytotoxic, single point]",
COc1cc(/C=N/NC(=O)CCN2CCN(C(c3ccccc3)c3ccccc3)CC2)ccc1O,"inconclusive [cytotoxic, single point]",
CC(C)N1C(=O)S/C(=C/c2ccc(Sc3nc4ccccc4[nH]3)o2)C1=O,"inconclusive [cytotoxic, single point]",
Cc1ccc(CNc2nc(-c3cccnc3)nc3ccccc23)cc1,"inconclusive [cytotoxic, single point]",
N#Cc1ccc(C(=O)NCC2CCCCC2)cc1,inactive,
COc1cccc(CNC(=O)Cc2ccc(-n3c(=O)[nH]c4ccccc4c3=O)cc2)c1,"inconclusive [cytotoxic, single point]",
O=C(NCCc1ccccc1)[C@@H]1CC=C[C@@H]2CCN(C3CCCCC3)C(=O)[C@@H]21,inactive,
COc1ccc(/C=C/C=C2\NC(=S)NC2=O)cc1,"inconclusive [cytotoxic, single point]",
O=C(NNC(=O)c1ccccc1O)c1ccccc1O,active: 9.2 µM,
Cc1ccccc1OCc1nc(-c2ccc(NC(=O)c3ccc4c(c3)OCO4)cc2)no1,active: 20.6 µM,
CCc1cc2c3c(c1)C1(C(=O)N3C(C)(C)C=C2C)C(C#N)=C(N)Oc2[nH]c(=O)[nH]c(=O)c21 (stereo unspecified),active: 16.4 µM,
CCc1nnc(NC(=O)CSc2nc(-c3ccccc3)c(-c3ccccc3)o2)s1,inactive,
COc1ccc(C(C)(NC(C)=O)c2nc(-c3ccc(F)c(Cl)c3)cs2)cc1 (stereo unspecified),"inconclusive [cytotoxic, single point]",
CCOc1ccc(-c2nnc3ccc(SCC(=O)NCc4ccco4)nn23)cc1,"inconclusive [cytotoxic, single point]",
Cc1ccc(-n2c(C)nn(CC3CC3)c2=O)cc1,,inconclusive: 32.1%
CN(Cc1ccccc1)C(=O)CN1CCN(C(c2ccccc2)c2ccccc2)CC1,"inconclusive [cytotoxic, single point]",
COc1ccc2oc(=O)c(-c3csc(Nc4ccc(O)cc4)n3)cc2c1,"inconclusive [cytotoxic, partial curve]",
O=C(c1nn2c(C(F)(F)F)cc(-c3ccco3)nc2c1Br)N1CCCc2ccccc21,active: 10.3 µM,
Cc1cccc(NNC(=O)c2c(F)cccc2Cl)c1,inactive,
Nc1nc(=S)c2ncn([C@@H]3O[C@H](CO)[C@@H](O)[C@H]3O)c2[nH]1,active: 0.92 µM,
O=C(NNC(=O)c1cnccn1)c1cccc([N+](=O)[O-])c1,"inconclusive [cytotoxic, single point]",
O=C(CCC1CCCCC1)Nc1cccc(C(=O)Nc2ccc(C(=O)O)cc2)c1,inactive,
CCCc1nc(N)c(C#N)c(-c2ccco2)c1CC,"inconclusive [cytotoxic, single point]",

Structure (SMILES),Potency,"activity, negative = toxicity"
CCc1ccc2nc3nc(C)cc(C)c3c(N)c2c1,active: 12.6 µM,
CCC(C)(C)n1nnnc1C(C(C)C)N(CCN1CCOCC1)Cc1cc2cccc(C)c2[nH]c1=O (stereo unspecified),"inconclusive [cytotoxic, single point]",
C=C(C1=CCN(S(=O)(=O)C(C)(C)C)[C@@H]1CCO)c1ccccc1,inactive,
COc1cc(C(O)c2nc(-c3cccc4cccnc34)cs2)ccc1F (stereo unspecified),inactive,
Nc1cccc(Oc2ccc3c(c2)C(=O)NC3=O)c1,"inconclusive [cytotoxic, partial curve]",
C=CCC1[C@H](C)[C@H]2[C@@H]3CC[C@@H](C3)[C@H]2CN1S(=O)(=O)c1ccc(C)cc1 (stereo partly specified),"inconclusive [cytotoxic, single point]",
Cn1c(N)c(C(C[N+](=O)[O-])c2ccccc2Cl)c(=O)n(C)c1=O (stereo unspecified),inactive,
COc1ccc(CNC(=O)c2csc(Cc3ccccc3)n2)cc1,inactive,
COCCCNCCCCOc1ccc(Br)cc1C,"inconclusive [cytotoxic, single point]",
Cc1cc(C(=O)CSc2nnc(NCc3ccccc3)s2)c(C)n1C,"inconclusive [cytotoxic, single point]",
COc1ccc(NC(=O)Cn2cnc3sc(C)c(S(=O)(=O)N4CCOCC4)c3c2=O)c(OC)c1,"inconclusive [cytotoxic, partial curve, poor fit]",
CCOC(=O)c1ccc(NC(=S)Nc2ccc(C)cc2)cc1,,inconclusive: -34.8% [cytotoxic]
CCN(Cc1ccccc1)c1ccc(/C=N/NC(=O)c2cccc(S(=O)(=O)N3CCOCC3)c2)cc1,active: 20.6 µM,
Cc1cc(C)nc(NC(=O)/C=C/c2cccs2)c1,inactive,
COc1cccc(-c2nc(NC(C)C)c3ccccc3n2)c1O,"inconclusive [cytotoxic, single point]",
COc1cccc(C(=O)Nc2ccc(-c3nc4ccccc4o3)c(O)c2)c1,"inconclusive [cytotoxic, single point]",
N#CCC(=O)N/N=C/c1cc(-c2ccccc2)n(-c2ccc(Cl)cc2)c1-c1ccccc1,active: 20.6 µM,
O=C(Nc1nc2ccccc2n1CCN1CCOCC1)c1ccc(COc2ccccc2Br)o1,"inconclusive [cytotoxic, partial curve]",
Cn1c(CNC(=O)c2ccco2)nnc1SCC(=O)Nc1ccc(Cl)cc1,"inconclusive [cytotoxic, single point]",
O=C(N/N=C/c1cc(Br)ccc1O)C(c1ccncc1)N1CCOCC1 (stereo unspecified),"inconclusive [cytotoxic, partial curve]",
COCCN(C(=O)CCl)C(C(=O)NC1CCCCC1)c1ccccc1C (stereo unspecified),active: 13 µM,
N#CC1=C(N)Oc2cc3ccccc3cc2C1c1cccs1 (stereo unspecified),"inconclusive [cytotoxic, single point]",
O=C(Nc1sc2c(c1C(=O)O)CCCC2)c1ccc(F)cc1,"inconclusive [cytotoxic, partial curve]",
c1ccc(C2CNCc3c2ccc2ccccc32)cc1 (stereo unspecified),"inconclusive [cytotoxic, single point]",

Structure (SMILES),Potency,"activity, negative = toxicity"
COc1ccc(-c2nc3ccc(Cl)cn3c2Cc2ccc(C)cc2)cc1OC,"inconclusive [cytotoxic, single point]",
NC1=NC2(CCCC2)N=C(Nc2ccccc2)N1,inactive,
O=C(CCl)Nc1cc2[nH]c(=O)[nH]c2cc1Br,active: 6.51 µM,
CC(=O)N1CCCC(C(=O)c2ccc(Oc3ccccc3)cc2)C1 (stereo unspecified),active: 16.4 µM,
COc1ccc(C)cc1NC(=O)C(=O)NNC(=O)COc1ccc(Cl)cc1,"inconclusive [cytotoxic, single point]",
CCOc1ccccc1NC(=O)C1C2CCC(O2)C1C(=O)O (stereo unspecified),"inconclusive [cytotoxic, single point]",
Cc1cc(C(=O)C(C)OC(=O)c2ccc(NC(=O)CC#N)cc2)c(C)n1-c1ccc(OC(F)F)cc1 (stereo unspecified),active: 25.9 µM,
CCN1CCN(C(c2cccs2)C(C)NC(=O)C(=O)N2CCCCC2)CC1 (stereo unspecified),inactive,
COc1ccccc1C(C[N+](=O)[O-])c1c(N)n(C)c(=O)n(C)c1=O (stereo unspecified),"inconclusive [cytotoxic, partial curve, poor fit]",
Oc1ccc(/C=N/N2CCN(C3c4ccccc4-c4ccccc43)CC2)c(O)c1,"inconclusive [cytotoxic, single point]",
O=C(CCCN1C(=O)c2ccccc2C1=O)NCCc1ccc(OC(F)F)cc1,"inconclusive [rising, partial curve]",
CCCCC(=O)NC(c1ccc(N(CC)CC)cc1)c1ccc2cccnc2c1O (stereo unspecified),"inconclusive [cytotoxic, partial curve]",
CCN(CC(=O)Nc1ccccc1-c1ccccc1)Cc1nc2ccccc2c(=O)[nH]1,active: 4.61 µM,
CCOC(=O)c1c(C)[nH]c(C)c1C(=O)CSc1nnc(-c2ccc(OC(F)F)cc2)o1,"inconclusive [cytotoxic, partial curve]",
CCOC(=O)c1c(NC(=O)CSc2ncccn2)sc2c1CCN(Cc1ccccc1)C2,"inconclusive [cytotoxic, single point]",
Cc1cc(C(=O)COC(=O)c2cc(Cl)c(O)c(Cl)c2)c(C)n1C,inactive,
COc1ccc(N/N=C(\C=N\O)C(=O)c2ccc(OC)cc2)cc1,"inconclusive [cytotoxic, partial curve]",
COc1ccccc1-n1c(SCC(=O)N(C)C)nnc1-c1ccco1,inactive,
COc1ccc(C(=O)Nc2ccccc2C(=O)N/N=C/c2ccccn2)cc1OC,"inconclusive [cytotoxic, full curve]",
c1ccc(CNc2nc(NCCOc3ccccc3)c3sccc3n2)cc1,"inconclusive [cytotoxic, single point]",
NC(=O)c1ccc(N=Cc2c(O)ccc3ccccc23)cc1,"inconclusive [cytotoxic, partial curve]",
N#CCCn1nc2c(c1N)CCC2,,inconclusive: 30.4%
COc1ccc(N2CCN(c3nc(Nc4ccc(C)c(F)c4)nc(N4CCCC4)n3)CC2)cc1,"inconclusive [rising, partial curve]",
